± gives the standard deviation of the averaged measurements. The list shows a part of the results.
The sequences below were run on PfAP2-G AP2 domain (GST-tagged) (assay: gcPBM binding intensity (ln(normalized median fluorescence intensity)); higher = stronger DNA binding).
Outline: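 Alexa488 anti-GST antibody, scanned at 488 nm, detected GST-tagged P. falciparum DNA-binding domains that had been expressed in E. coli and incubated for 1 h on an Agilent 4 × 180k array. The array carried primer-extended double-stranded 36-bp intergenic genomic probes and negative controls. Binding intensity is the highest Masliner-normalised natural-log median intensity across replicate spots of either orientation of each probe.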

“ATATATATTTTATACGCATGTAATTATTATGTGGTC [TGCATGCA_site45]” was tested. Which “gcPBM binding intensity (ln)” value did it give?
Its value is 10.5 ± 0.13.

For “ATAACCTAATAATACACACACATGAATATAAATAAC [CACACA_site6584]”, which “gcPBM binding intensity (ln)” value is on record?
Its value is 10.2 ± 0.18.

With “AAACAATTTGGGTGTACACATGATACGTTCGATGAG [CACACA_site5160]” as the sequence, how does the “gcPBM binding intensity (ln)” value read?
Its value is 11.6 ± 0.87.

With “ATATTATACATTTATACACACATAAAAAGACAAAAA [CACACA_site3565]” as the sequence, how does the “gcPBM binding intensity (ln)” value read?
The value was 10.3 ± 0.3.

How did the “gcPBM binding intensity (ln)” value turn out when “ATAATTTATATTACTTGTACATATTTATATGAACGA [XGTACX_site3610]” was run?
The value was 11.1 ± 0.65.

“TGTAATATTTTTCATGCATGCTCTTCTTTTACATAA [TGCATGCA_site144]” was tested. Which “gcPBM binding intensity (ln)” value did it give?
Its value is 10.05 ± 0.049.

Which “gcPBM binding intensity (ln)” value does the source give for “TTATATATATATATATGTACACATATATAACATGAT [XGTACX_site6643]” here?
The value was 11.4 ± 0.91.

For “TATATTAAACAATATACACACATTAATGTATCCATA [CACACA_site5523]”, which “gcPBM binding intensity (ln)” value is on record?
The value was 9.975 ± 0.064.

For “CTTAATTTTTTTTAATGTACATACATATAAACCTTT [XGTACX_site2233]”, which “gcPBM binding intensity (ln)” value is on record?
Its value is 11.2 ± 0.67.

With “AGTTATATGTACTACACACGTACACAAAATAAGATA [CACACA_site3719]” as the sequence, how does the “gcPBM binding intensity (ln)” value read?
Its value is 11.6 ± 0.75.

For “AAAATTAAAAATAACACACACATATTTATATTTATA [CACACA_site7329]”, which “gcPBM binding intensity (ln)” value is on record?
The value was 9.66 ± 0.042.

How did the “gcPBM binding intensity (ln)” value turn out when “AAGGAGAAATATTGCACACGTGCAAAATGGTATGAG [CACACA_site259]” was run?
The value was 10.15 ± 0.064.

“TATTCTTTTATGAATACACACATATACGAAAATATT [CACACA_site6585]” was tested. Which “gcPBM binding intensity (ln)” value did it give?
The value was 10.2 ± 0.26.

How did the “gcPBM binding intensity (ln)” value turn out when “AAATGTTAAAAAGAGAAAAACAATAAAAAACAATTA [CACACA_negctrl_site1044]” was run?
Its value is 9.61 ± 0.31.

How did the “gcPBM binding intensity (ln)” value turn out when “AGGTGTCATAGATGCACACAAAAGTAACACGCACCT [CACACA_site4418]” was run?
Its value is 10.26 ± 0.049.

“AAAAGGTTATCAAAATGTACGAAATGTTACAAAAAT [XGTACX_site6215]” was tested. Which “gcPBM binding intensity (ln)” value did it give?
The value was 10.6 ± 0.37.

With “GGACTATACAGTTATACACACACATATATATATAAT [CACACA_site7991]” as the sequence, how does the “gcPBM binding intensity (ln)” value read?
Its value is 10.2 ± 0.17.

“ACTACGTGTCAAAAATATTAATTACAAATGAATAAA [GTGCAC_negctrl_site248]” was tested. Which “gcPBM binding intensity (ln)” value did it give?
Its value is 9.92 ± 0.41.

For “ATATGCTATTAATTATGTACATATATATATATATAT [XGTACX_site4901]”, which “gcPBM binding intensity (ln)” value is on record?
The value was 11.2 ± 0.71.

How did the “gcPBM binding intensity (ln)” value turn out when “GTACATTATATATATACACACATACATAATAAAGAA [CACACA_site5528]” was run?
The value was 10.8 ± 0.39.

Which “gcPBM binding intensity (ln)” value does the source give for “ATGAACAAGGGGCACACACACATTATGACTAATTTA [CACACA_site3204]” here?
Its value is 10.7 ± 0.52.

Which “gcPBM binding intensity (ln)” value does the source give for “ATGCATACACTTATATGTACACATTTACATATTATT [XGTACX_site2841]” here?
Its value is 11.5 ± 0.84.

How did the “gcPBM binding intensity (ln)” value turn out when “AATAAATAAATATATTGTACATATATATATATATAT [XGTACX_site8627]” was run?
The value was 11 ± 0.53.

“CGAAAGGAAATATAACGTACATAAGATTATATTCAC [XGTACX_site3868]” was tested. Which “gcPBM binding intensity (ln)” value did it give?
The value was 11.3 ± 0.83.

With “AACATACTCACGAACATACACACGGACATACATACG [CACACA_site603]” as the sequence, how does the “gcPBM binding intensity (ln)” value read?
Its value is 11.1 ± 0.49.

How did the “gcPBM binding intensity (ln)” value turn out when TATTAATATATAGTAGTGCAATAAAGATATACTGAA was run?
Its value is 10.2 ± 0.11.

Which “gcPBM binding intensity (ln)” value does the source give for “AAAACAAACGGACACACACACATATATATATATATA [CACACA_site5924]” here?
The value was 11 ± 0.74.

With “ACATGTAAATTTACATGTACATGTAACACTTAATAT [XGTACX_site4575]” as the sequence, how does the “gcPBM binding intensity (ln)” value read?
Its value is 11.2 ± 0.67.

“ATACGAAAAAATAGACGTACTATGAAATAATAATTT [XGTACX_site8387]” was tested. Which “gcPBM binding intensity (ln)” value did it give?
Its value is 11.4 ± 0.84.

With “TACTTAAAAAAAAAAAAAATAAATATTATGTATTAT [CACACA_negctrl_site138]” as the sequence, how does the “gcPBM binding intensity (ln)” value read?
The value was 9.52 ± 0.028.

How did the “gcPBM binding intensity (ln)” value turn out when “TACATATTTACTATCACACACACGATATATATAAAT [CACACA_site1242]” was run?
The value was 10.1 ± 0.16.

“TATATTATTTTTTGTGGTACATGTATTTTTACCTAA [XGTACX_site4348]” was tested. Which “gcPBM binding intensity (ln)” value did it give?
Its value is 11.4 ± 0.82.

With TAATATTTTAATTGTGTGCACATTAATATTATAAAA as the sequence, how does the “gcPBM binding intensity (ln)” value read?
Its value is 10.4 ± 0.36.

Which “gcPBM binding intensity (ln)” value does the source give for TTTAGTGAGTTTGTTGTGCACTGAAAAAATTACAAT here?
The value was 10.6 ± 0.35.

With “TAATAGTTATAAAATACACACCAGGCATGATAAATG [CACACA_site4335]” as the sequence, how does the “gcPBM binding intensity (ln)” value read?
The value was 10.015 ± 0.007.

For “TATAAAATATAAATTTGTACATATAAAATATTTTAT [XGTACX_site7462]”, which “gcPBM binding intensity (ln)” value is on record?
Its value is 10.8 ± 0.53.

How did the “gcPBM binding intensity (ln)” value turn out when “TTTTTTAAAATATAAAATATGTACAAATATGTTGAA [GTGCAC_negctrl_site379]” was run?
Its value is 11.3 ± 1.1.

Which “gcPBM binding intensity (ln)” value does the source give for “AATATTTTAAAAAAATGTACTTTTAACCCTTATTGG [XGTACX_site3490]” here?
Its value is 11 ± 0.62.

Which “gcPBM binding intensity (ln)” value does the source give for “GTATGAAAAAAATATGCATGCTAAATAATAAATGTT [TGCATGCA_site352]” here?
Its value is 10.01 ± 0.049.

For “ATATATGGGTAGTATACACACTGTATATTTAGGAAT [CACACA_site7357]”, which “gcPBM binding intensity (ln)” value is on record?
Its value is 10.17 ± 0.071.

For “GAACAAACAAAGAAAGAACACACATACACAATATAC [CACACA_site8918]”, which “gcPBM binding intensity (ln)” value is on record?
Its value is 10.2 ± 0.18.

For “TAGATTTTTTTACATTGTACATATTTTTTCTTATAG [XGTACX_site293]”, which “gcPBM binding intensity (ln)” value is on record?
Its value is 11.2 ± 0.8.

For “TATATATATATACATACATATAAAGTTACATAAACA [CACACA_negctrl_site432]”, which “gcPBM binding intensity (ln)” value is on record?
The value was 10.3 ± 0.67.

For “ATTTCGTAATTTATATCACACACATATATATATAAT [CACACA_site9021]”, which “gcPBM binding intensity (ln)” value is on record?
Its value is 10.2 ± 0.29.

Which “gcPBM binding intensity (ln)” value does the source give for “ATCATTTTTATAAATTGTACAAATATTTTTTATACA [XGTACX_site7551]” here?
The value was 11 ± 0.35.

For “CTTACATAAAATATCACACACATAAAAAAACAATAT [CACACA_site1901]”, which “gcPBM binding intensity (ln)” value is on record?
The value was 10 ± 0.19.

TATATATATATATATGTGCACATATATATGATATTA was tested. Which “gcPBM binding intensity (ln)” value did it give?
Its value is 10.2 ± 0.33.

Which “gcPBM binding intensity (ln)” value does the source give for “CATATTATTTATATTTGTACACAGCGATATGAAATA [XGTACX_site7717]” here?
The value was 11 ± 0.59.

“TTATATAAATATAAGGTGCTGGGGTTTATTACATAT [GTGCAC_site9909]” was tested. Which “gcPBM binding intensity (ln)” value did it give?
Its value is 10 ± 0.18.

Which “gcPBM binding intensity (ln)” value does the source give for “CACCAATTCATATGCACACACATCTGCATATTATAG [CACACA_site6925]” here?
The value was 10.3 ± 0.22.

“ATATCGCACGTTTGAAGTACATAAAAACGATTAATA [XGTACX_site7684]” was tested. Which “gcPBM binding intensity (ln)” value did it give?
The value was 11.3 ± 0.84.

With “TTATATTTTTTTGAGTGTACTTTTTGTGTAAAATTC [XGTACX_site2155]” as the sequence, how does the “gcPBM binding intensity (ln)” value read?
The value was 11.5 ± 0.84.

“ACCCATTTTTGTTGTTCTATATATTCGTGAATCATT [CACACA_negctrl_site614]” was tested. Which “gcPBM binding intensity (ln)” value did it give?
The value was 10.12 ± 0.064.

For “AATTTTTTGAATAATTGTACATATTTGGTTAAATAT [XGTACX_site3612]”, which “gcPBM binding intensity (ln)” value is on record?
The value was 10.9 ± 0.56.

With “TTACTAAGAAGGATTTATTTTATAAAAATATTTATT [XGTACX_negctrl_site549]” as the sequence, how does the “gcPBM binding intensity (ln)” value read?
The value was 9.63 ± 0.028.

For “GAAATCTAATTTATTACACACATTTGAAAAAAATTC [CACACA_site6640]”, which “gcPBM binding intensity (ln)” value is on record?
The value was 9.845 ± 0.092.

For “ATATTTTATACTTGCACACAAAATATATTAGAATGT [CACACA_site1985]”, which “gcPBM binding intensity (ln)” value is on record?
Its value is 10.2 ± 0.14.
